According to the supplement of paper PMC3334620:
The full ranking holds about 33,000 sequences; the median of “E-score (-0.5 to 0.5)” is about -0.011, and the highest 2% start at about 0.28. The list shows a part of the results.

Molecular target: T1, Gcr1 (UniProt P07261)
T1 sequence: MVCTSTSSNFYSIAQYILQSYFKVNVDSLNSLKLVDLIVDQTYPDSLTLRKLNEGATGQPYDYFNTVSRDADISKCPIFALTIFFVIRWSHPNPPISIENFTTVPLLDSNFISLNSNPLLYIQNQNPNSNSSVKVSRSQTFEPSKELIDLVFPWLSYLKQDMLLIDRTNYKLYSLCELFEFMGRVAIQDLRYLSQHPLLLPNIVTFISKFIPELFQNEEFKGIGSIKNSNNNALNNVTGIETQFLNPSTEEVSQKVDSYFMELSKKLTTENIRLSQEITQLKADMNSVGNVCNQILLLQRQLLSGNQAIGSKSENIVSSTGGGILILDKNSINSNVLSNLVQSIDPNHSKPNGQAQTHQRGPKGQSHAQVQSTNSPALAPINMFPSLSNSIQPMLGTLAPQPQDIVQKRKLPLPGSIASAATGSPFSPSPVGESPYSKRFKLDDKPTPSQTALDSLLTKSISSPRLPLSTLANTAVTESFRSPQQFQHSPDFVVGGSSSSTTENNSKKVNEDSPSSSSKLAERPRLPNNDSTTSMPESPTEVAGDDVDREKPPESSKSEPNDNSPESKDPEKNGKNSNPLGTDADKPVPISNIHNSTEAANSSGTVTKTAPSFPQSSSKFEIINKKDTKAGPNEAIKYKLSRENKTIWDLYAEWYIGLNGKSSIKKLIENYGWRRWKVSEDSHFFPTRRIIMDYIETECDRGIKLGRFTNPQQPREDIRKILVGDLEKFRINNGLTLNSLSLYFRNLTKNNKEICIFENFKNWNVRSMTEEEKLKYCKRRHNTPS
Experiment: PBM E-score (8-mer binding enrichment) (E-score (-0.5 to 0.5)); higher = stronger / more preferred TF binding; most listed sequences are background and not binding sites
Conditions: protein concentration: 100 nM; construct: GST-full length
Procedure, shortened: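 Each ungapped eight-base word and its reverse complement, pooled, received an E-score from the Universal PBM Analysis Suite. Underlying scans, normalised with masliner, recorded fluorescent anti-GST bound to GST-tagged yeast transcription factors. These were applied at about 100-200 nM to universal all-10-mer Agilent arrays double-stranded by primer extension.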

Sequence	PBM E-score
GCGTTTGA	-0.204
AATATTGT	0.144
AGCATATC	0.0198
ATGATCCA	-0.0753
ACTACGTA	0.00907
ACACCATA	0.131
CCCATCTA	-0.0577
AATCTTAG	0.0881
AGTGTTAT	-0.0233
GATCCCAC	0.235
ATTTGCGC	0.0154
GTAGATGA	-0.0244
TGGATCCA	0.317
GGCGAAAC	-0.183
AGCGCTAC	-0.0646
CTGCCATA	0.0483
AAAGAGGG	-0.00258
CTCCCTCC	-0.125
CAACTGCG	0.0257
AACCATAC	0.0678
TGACTACA	-0.136
CACTACGC	-0.185
ATCCAGGA	0.0912
GAGCAAAA	-0.0848
AGGCCCTA	-0.0249

Sequence	PBM E-score
AGATACTA	0.0512
CAGGTAGG	-0.0283
CACTTGGA	0.136
AGAGTCAC	-0.0878
ACTAGTAA	0.194
ACATTCGG	0.0771
GAACAGCC	-0.0918
CGTTAACC	-0.0119
AATATTAT	0.0888
CGAAAACC	-0.0887
GACTGAAA	-0.111
AGCCATCA	-0.145
GAGAAAGA	-0.16
TCTAGGAA	0.105
AGTCCCTC	-0.274
GGAAGGAA	-0.0435
CTCTCGGC	0.0316
AAGTGGGA	0.135
CCTCAACC	-0.218
AGCTAGCC	-0.21
ACTCCGTC	-0.0253
GCCCGAAC	0.0128
AACACAAG	0.11
TGAAAACA	0.143
AGAAAGCA	0.06

Sequence	PBM E-score
ACCCACCC	0.0924
GGTAGTAC	-0.193
GACATCAA	0.0894
CTCCCGCA	0.0905
AAGGTATG	0.0151
ATTCGAGA	-0.0119
ACTTGTGA	-0.00264
CTCAACAC	-0.0327
GGTTGGGA	-0.0666
CATATCGA	0.036
CAGGCGGC	0.0944
CCACTCCC	0.0667
ATCTATAC	0.138
CGGCTTGC	0.0778
AACACAGC	-0.0364
CTGACCCC	-0.377
ACCGTTGA	-0.151
AATCCTCT	-0.0749
ACCGTACT	-0.00317
CACTTCAG	-0.0776
ACACTTAT	-0.0887
GTTGGCGA	-0.0272
CCGGATCA	0.134
CCGATGCA	-0.136
AATACGAT	0.183

Sequence	PBM E-score
ATACGCGA	0.102
CAGTCTCG	-0.174
CTCTACTA	0.215
ATACAGGG	0.15
CCAGCTAG	-0.00082
CTCAGGCA	0.079
AGAAGAAG	0.437
CTGGTCCA	-0.0598
ATACCGCA	-0.121
GATAGCGA	-0.14
CCTGTGCC	-0.0993
CTTGCAAC	-0.141
AAAATCCC	-0.0483
GCTGACAA	0.0626
GGTGCCCA	0.382
ATCAACGC	-0.105
AGTACGTG	-0.139
ATACAGAG	0.0677
GCCGCAAC	0.193
GAACCTAC	0.0135
ACATCGGG	-0.0963
ACTTAGTA	-0.0141
ACTTACAG	-0.152
CGCGGTCA	-0.244
GTACTAGA	-0.0233

Sequence	PBM E-score
AAGCCTGA	-0.226
CAGACTTA	-0.22
GCTACAGA	-0.0121
CCTGACCA	-0.0197
CGCGGTAG	-0.0858
GAACTGCA	-0.0546
GATATCAA	0.0419
CAAGACTA	0.046
CATGGGAG	0.174
TGTGGCAA	0.0518
GACTCCAA	0.18
GCGACAAA	0.209
ACACTGAA	0.125
ATCTCAAA	0.13
ATACCTCC	-0.111
ACGCTCCA	-0.176
ACCTCCCC	0.00443
CCCGCCCG	0.123
GCGGTAAA	0.0323
ACAGGATA	0.177
TCATACCA	-0.207
AGATTGAA	-0.0596
TCTCCGAA	-0.134
AACATACC	-0.0923
CTAATTGA	0.121

Sequence	PBM E-score
CCACAATA	0.3
AATGGCTC	0.104
CGTAGGCA	-0.158
ATTGTCTA	0.00429
ATCTGATA	-0.0264
GCAATCGC	-0.113
CCTAACTC	0.00256
CAAACGTC	-0.0326
CTCTGCCA	-0.17
GCATACCC	-0.0102
CTCGGACA	-0.147
ATATTAAC	0.232
ATAACAAC	0.0852
GCTCGTTA	-0.266
ACTGCCGG	0.00898
AAAGTATC	0.0341
ATAAACCA	-0.204
ATCGCCTC	0.0027
AGCATTAC	0.0568
ACTACTGA	-0.188
GAAGGTGA	0.0876
AAAACTTC	0.0926
GGGATGAA	-0.207
AGTGCTTC	-0.0411
CATTTCAA	0.0908

Sequence	PBM E-score
GAGGCATA	0.0209
GCTGGAAA	0.107
CTCGGCCC	-0.242
CTCCGATC	-0.00026
ACTCACAG	-0.121
AGGAATAG	-0.131
AATCTCCG	-0.0956
TGCCTGAA	0.0285
ACCTACGC	-0.143
AAGGCCGA	-0.221
AAACGATC	-0.189
GAATAGGC	0.0784
CGGCCTCC	0.165
AGCTGACC	-0.0744
CGCGAACG	-0.0508
CAGTCTCA	0.0106
ATGCCAGC	0.011
GGGATCCC	0.419
AGCATGAT	0.0033
AGGGCACA	-0.184
GATCCTCA	0.0615
AGACGTAG	0.143
ATGGACGC	0.262
AGTAACAT	0.0315
AGGAATAA	-0.0706

Sequence	PBM E-score
ACAAATCT	0.22
ATACCATG	0.084
ACCTAAGA	0.239
CCGATTTA	0.194
GATGCGAA	0.126
ATGTATCC	0.12
GCACAATA	-0.202
ATTGGAAG	0.363
ACCCTGCC	-0.0994
GGCTCGCA	-0.137
CTGGTGAC	-0.0303
GGAAAGCA	-0.17
CAGATTGA	-0.0838
GGTGGAGA	-0.232
CAATAGTG	0.15
ATCTAGTG	0.132
AGTAAGGG	-0.148
TGTCGAAA	-0.179
CGAACTGC	0.087
CGACTTAA	0.00479
AGAAACTG	-0.0761
GGCAATAA	-0.153
CTCCTGCC	-0.00864
CGCCTGGC	-0.118
ACAAGACG	0.0879

Sequence	PBM E-score
CACACGTG	-0.0936
GAGCACCA	0.207
CCGCCAAG	-0.0931
CATCCGTA	0.0745
CAAGACTG	-0.134
GATCAAGC	-0.0969
AGGGGTGG	-0.0736
CCTGAGCC	0.0888
ACATGGTC	-0.0999
AAACCGCT	-0.273
AATCTAAG	-0.0118
TCTTGGCA	0.205
AGTTTAAT	0.0173
CTACACCA	-0.0681
ATTCACCA	0.083
CTTGTACA	0.0263
ACACGTCT	0.112
AAACGAGC	0.116
CCAACATC	0.038
